The source of these data is article PMC6484760.

The chains behind the UniProt entries cited, without tags or fusion partners. Residues count along the entry.
UniProt Q09472: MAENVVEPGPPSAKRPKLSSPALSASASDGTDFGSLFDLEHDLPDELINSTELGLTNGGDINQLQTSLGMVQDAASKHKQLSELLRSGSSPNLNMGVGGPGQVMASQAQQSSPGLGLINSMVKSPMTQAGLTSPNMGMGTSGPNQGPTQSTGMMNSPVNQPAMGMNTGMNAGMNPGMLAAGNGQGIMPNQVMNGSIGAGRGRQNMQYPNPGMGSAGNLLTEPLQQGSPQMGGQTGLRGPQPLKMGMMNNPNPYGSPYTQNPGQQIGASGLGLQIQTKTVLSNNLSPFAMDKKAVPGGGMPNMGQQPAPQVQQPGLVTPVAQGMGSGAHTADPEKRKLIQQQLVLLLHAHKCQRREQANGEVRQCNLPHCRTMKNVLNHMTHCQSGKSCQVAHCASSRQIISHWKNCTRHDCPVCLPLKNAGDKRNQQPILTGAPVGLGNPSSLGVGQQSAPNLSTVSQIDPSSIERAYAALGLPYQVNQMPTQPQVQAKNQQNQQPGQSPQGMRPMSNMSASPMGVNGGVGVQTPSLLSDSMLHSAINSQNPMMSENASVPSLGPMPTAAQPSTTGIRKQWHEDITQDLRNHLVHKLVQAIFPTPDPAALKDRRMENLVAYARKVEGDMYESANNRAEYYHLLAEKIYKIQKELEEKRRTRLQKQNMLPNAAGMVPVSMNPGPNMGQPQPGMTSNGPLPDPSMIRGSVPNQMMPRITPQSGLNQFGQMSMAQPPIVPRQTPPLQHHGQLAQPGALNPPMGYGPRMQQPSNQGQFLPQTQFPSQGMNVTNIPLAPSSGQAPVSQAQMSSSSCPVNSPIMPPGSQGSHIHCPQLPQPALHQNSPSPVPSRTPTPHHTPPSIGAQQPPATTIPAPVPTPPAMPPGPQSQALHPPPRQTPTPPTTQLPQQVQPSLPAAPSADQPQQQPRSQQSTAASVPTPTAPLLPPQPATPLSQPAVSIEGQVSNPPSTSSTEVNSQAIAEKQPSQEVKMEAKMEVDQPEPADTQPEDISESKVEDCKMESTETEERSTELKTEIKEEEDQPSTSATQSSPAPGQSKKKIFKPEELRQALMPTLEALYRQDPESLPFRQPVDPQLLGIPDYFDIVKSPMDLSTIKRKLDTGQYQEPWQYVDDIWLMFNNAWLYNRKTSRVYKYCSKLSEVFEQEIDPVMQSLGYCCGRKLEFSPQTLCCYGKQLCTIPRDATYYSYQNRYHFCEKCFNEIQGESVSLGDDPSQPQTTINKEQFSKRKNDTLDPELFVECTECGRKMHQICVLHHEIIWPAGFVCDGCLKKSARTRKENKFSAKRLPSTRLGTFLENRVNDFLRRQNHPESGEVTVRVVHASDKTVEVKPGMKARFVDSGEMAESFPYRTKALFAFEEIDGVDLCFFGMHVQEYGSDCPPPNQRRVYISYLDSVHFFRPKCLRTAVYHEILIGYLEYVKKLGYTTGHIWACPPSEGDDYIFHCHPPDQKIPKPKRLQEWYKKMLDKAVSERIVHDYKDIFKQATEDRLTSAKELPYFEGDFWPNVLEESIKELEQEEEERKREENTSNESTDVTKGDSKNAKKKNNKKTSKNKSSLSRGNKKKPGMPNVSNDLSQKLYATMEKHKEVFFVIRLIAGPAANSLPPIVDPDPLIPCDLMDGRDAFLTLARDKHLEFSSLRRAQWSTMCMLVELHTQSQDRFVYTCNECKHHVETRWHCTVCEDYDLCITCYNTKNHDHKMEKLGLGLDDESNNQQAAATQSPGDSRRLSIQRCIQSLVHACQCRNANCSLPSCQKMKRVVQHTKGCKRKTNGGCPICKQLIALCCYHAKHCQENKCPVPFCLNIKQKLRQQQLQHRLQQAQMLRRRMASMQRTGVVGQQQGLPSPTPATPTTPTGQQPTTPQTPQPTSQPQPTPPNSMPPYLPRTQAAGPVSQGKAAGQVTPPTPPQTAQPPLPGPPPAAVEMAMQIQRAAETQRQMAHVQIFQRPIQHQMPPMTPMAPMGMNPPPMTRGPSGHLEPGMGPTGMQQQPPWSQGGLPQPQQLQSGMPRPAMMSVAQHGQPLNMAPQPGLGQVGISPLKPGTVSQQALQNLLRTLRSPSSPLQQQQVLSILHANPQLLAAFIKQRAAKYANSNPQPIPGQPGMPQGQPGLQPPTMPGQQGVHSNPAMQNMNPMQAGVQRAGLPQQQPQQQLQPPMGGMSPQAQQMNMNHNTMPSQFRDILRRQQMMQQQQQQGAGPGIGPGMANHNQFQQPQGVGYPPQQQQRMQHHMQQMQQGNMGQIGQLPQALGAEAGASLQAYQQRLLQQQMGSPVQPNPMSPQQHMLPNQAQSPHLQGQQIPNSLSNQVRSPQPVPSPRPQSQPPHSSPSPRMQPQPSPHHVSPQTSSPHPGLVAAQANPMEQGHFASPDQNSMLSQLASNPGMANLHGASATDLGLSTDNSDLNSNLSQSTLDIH
UniProt Q13705, residues 19-512: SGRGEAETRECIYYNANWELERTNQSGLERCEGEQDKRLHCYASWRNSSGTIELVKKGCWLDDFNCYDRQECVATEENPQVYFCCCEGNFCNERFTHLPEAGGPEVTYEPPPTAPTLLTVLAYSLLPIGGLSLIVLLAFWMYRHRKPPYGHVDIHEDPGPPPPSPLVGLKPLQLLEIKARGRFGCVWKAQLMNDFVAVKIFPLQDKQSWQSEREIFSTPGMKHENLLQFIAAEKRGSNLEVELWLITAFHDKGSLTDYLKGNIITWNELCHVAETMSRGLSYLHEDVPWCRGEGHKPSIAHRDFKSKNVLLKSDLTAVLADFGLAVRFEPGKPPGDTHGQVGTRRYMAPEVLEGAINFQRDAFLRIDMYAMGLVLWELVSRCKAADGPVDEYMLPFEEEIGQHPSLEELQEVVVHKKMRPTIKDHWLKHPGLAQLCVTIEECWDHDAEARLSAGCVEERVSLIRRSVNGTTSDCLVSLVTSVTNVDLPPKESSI
UniProt Q9NPF5: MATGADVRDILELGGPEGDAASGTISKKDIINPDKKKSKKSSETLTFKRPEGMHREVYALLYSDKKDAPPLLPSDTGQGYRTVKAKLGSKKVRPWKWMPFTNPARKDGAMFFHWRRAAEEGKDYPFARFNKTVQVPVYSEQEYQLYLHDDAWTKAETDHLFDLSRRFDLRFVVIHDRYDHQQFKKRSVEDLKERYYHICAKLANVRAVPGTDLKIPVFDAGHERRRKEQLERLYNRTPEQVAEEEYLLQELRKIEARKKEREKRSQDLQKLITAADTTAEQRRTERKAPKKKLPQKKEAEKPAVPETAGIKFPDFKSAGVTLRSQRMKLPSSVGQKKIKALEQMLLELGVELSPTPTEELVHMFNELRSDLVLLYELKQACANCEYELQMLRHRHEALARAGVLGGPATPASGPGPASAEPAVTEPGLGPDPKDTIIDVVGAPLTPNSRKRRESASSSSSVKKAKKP
UniProt Q92769: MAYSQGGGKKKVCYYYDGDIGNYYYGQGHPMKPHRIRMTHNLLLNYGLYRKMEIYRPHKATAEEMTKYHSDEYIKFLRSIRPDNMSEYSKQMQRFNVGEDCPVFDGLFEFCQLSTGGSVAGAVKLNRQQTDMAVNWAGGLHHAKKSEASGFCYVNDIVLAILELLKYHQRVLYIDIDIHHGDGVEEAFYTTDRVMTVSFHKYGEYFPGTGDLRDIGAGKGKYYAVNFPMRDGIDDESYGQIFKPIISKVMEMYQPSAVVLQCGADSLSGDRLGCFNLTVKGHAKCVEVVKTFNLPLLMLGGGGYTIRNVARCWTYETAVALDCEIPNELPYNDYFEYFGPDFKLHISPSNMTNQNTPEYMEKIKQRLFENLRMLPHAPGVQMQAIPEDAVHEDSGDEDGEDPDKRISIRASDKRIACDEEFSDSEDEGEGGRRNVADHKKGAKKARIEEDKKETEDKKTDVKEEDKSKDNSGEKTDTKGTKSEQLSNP
UniProt P19883, residues 30-344: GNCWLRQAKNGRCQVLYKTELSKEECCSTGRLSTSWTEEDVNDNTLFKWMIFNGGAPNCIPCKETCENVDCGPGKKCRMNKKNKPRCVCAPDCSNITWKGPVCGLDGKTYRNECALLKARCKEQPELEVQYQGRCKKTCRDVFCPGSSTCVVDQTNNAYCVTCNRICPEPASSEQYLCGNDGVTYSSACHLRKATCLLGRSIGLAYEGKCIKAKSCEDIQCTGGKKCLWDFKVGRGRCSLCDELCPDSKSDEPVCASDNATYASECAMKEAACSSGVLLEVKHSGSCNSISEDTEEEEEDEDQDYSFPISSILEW

These are yes or no findings as the source states them, for the method shown. For some of these results: Binding seen in cells or lysates may run through a third protein. Some entries that bind do so weakly or less than the wild type. For some of these results: Tags and fused reporters may be left off the sequences shown.

Experiment [1] deals with T1, Fstl1 (follistatin-like protein 1) in GBM cells (human (endogenous in GBM cells)) (UniProt Q12841).
T1 sequence: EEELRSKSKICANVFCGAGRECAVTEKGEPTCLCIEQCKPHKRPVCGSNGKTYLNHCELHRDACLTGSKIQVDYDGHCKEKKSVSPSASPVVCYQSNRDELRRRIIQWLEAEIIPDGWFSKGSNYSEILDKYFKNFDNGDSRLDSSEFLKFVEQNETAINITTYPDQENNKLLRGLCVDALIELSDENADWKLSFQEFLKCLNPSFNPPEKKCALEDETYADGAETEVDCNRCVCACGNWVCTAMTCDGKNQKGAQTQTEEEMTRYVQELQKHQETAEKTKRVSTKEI
Put plainly: co-IP; co-IP of Fstl1 and partners from GBM cells (Supplementary Figs. 9 and 10), Co-IP kit (Thermo Scientific); details in the Supplementary Material.

The target of experiment [2] is T2, FLAG-Fstl1 (follistatin-like protein 1), immobilized fusion protein (UniProt Q12841).
T2 sequence: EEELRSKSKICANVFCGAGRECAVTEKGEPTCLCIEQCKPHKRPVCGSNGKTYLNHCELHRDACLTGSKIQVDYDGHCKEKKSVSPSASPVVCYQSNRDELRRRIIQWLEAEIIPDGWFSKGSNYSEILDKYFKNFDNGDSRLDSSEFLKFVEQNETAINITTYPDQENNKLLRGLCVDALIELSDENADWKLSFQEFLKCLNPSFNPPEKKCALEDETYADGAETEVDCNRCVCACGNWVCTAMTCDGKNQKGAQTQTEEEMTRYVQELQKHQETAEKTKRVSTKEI
Put plainly: pull-down; FLAG fusion protein immobilized on anti-FLAG M2 agarose beads, incubated with D54 whole-cell extract; binding buffer 25 mM HEPES pH 7.9, 150 mM NaCl, 0.5 mM EDTA, 10% glycerol, 0.1% Triton X-100, 0.1 mg/ml BSA, 1 mM DTT; 2 h at 4 °C; western blot; only the target purified. For orientation: In western blotting, separated proteins are transferred to a membrane and probed.

Experiment [3] has as its target T3, flag-Fstl1 expressed in D54 cells (UniProt Q12841).
T3 sequence: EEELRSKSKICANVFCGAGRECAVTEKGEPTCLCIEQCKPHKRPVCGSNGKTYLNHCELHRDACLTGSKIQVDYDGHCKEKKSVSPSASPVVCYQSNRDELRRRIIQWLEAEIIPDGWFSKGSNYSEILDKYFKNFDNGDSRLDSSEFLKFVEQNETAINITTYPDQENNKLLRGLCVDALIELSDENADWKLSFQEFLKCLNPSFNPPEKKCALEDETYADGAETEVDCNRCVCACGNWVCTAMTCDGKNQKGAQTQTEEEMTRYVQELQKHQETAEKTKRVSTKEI
Description: co-IP; total, membrane, cytoplasmic and nuclear extracts of D54 cells transfected with flag-Fstl1; anti-flag antibody.

The target in experiment [4] is DIP2A expressed from DIP2A expression constructs in D54 cells (size-exclusion chromatography) (UniProt Q14689). Description: SEC; 5 mg total protein of lysate from D54 cells transfected with DIP2A; Superose 6 Increase 10/300, phosphate-buffered saline, 0.5 ml/min; 500 μl fractions immunoblotted. (Size exclusion chromatography separates by hydrodynamic size, large species first.)

Experiment [5] concerns the target DIP2A (disco-interacting protein 2 homolog A), endogenous in GBM cells (human (endogenous in D54 and other GBM cells)) (UniProt Q14689). Description: co-IP; endogenous proteins; D54 cell lysate with anti-DIP2A or IgG, nuclear extracts of GBM cells with anti-HDAC2 or IgG; also cells transfected with Fstl1 or vector (D54), shFstl1-7 or shCtrl (05MG).
Experiment [6] has as its target FLAG-tagged wild-type DIP2A (WT), expressed in D54 cells (UniProt Q14689). Description: co-IP; D54 cells transfected with flag-DIP2A, flag-A-DIP2A or flag-B-DIP2A, 48 h after transfection.
For experiment [7], the target named is T4, FLAG-B-DIP2A, the posterior portion of DIP2A spanning amino acids 124-1571, expressed in D54 cells (UniProt Q14689).
T4 sequence: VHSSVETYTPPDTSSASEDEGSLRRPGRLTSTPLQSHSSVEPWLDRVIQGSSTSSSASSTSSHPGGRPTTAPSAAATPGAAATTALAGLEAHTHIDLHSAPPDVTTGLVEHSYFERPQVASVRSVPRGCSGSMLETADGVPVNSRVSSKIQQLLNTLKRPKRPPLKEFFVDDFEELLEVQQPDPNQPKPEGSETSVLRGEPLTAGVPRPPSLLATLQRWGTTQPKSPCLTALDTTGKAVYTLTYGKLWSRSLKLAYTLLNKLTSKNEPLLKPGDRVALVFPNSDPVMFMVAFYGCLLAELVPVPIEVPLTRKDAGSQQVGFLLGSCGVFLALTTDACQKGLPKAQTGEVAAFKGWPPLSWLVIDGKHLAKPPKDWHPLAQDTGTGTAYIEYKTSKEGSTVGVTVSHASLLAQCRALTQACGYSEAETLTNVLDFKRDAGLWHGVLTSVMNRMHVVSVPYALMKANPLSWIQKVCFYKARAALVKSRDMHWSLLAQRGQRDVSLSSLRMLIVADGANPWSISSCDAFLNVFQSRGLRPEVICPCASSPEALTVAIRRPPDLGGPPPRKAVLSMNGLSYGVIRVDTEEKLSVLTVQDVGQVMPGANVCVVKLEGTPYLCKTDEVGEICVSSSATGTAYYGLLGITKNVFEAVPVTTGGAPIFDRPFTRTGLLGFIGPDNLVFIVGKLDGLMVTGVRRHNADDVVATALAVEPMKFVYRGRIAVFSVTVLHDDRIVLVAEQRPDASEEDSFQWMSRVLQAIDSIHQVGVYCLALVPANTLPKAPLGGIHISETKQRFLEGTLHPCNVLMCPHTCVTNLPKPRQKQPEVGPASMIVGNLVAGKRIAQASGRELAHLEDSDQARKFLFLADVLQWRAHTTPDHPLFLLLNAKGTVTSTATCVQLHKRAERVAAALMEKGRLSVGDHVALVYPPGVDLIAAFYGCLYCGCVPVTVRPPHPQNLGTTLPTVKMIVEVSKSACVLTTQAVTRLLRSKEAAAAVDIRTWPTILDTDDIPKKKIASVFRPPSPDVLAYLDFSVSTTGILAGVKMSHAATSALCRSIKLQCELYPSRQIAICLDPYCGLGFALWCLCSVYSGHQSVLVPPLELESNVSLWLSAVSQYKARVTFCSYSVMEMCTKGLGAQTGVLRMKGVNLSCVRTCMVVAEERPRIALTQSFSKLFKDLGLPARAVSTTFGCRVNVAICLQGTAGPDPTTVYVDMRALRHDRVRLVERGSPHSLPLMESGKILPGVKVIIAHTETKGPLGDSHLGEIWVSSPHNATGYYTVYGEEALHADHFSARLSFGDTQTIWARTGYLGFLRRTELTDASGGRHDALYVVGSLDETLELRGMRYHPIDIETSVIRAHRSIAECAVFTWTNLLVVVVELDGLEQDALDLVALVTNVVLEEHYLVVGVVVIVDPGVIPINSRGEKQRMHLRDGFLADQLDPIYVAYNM
The experiment is described as above.

For experiment [8], the target named is T5, FLAG-A-DIP2A, the DMAP1-binding domain spanning the first 150 amino acids of DIP2A, expressed in D54 cells (UniProt Q14689).
T5 sequence: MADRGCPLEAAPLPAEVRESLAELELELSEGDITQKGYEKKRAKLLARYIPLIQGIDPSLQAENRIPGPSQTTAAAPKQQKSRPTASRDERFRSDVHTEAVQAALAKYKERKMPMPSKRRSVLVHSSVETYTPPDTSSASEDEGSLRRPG
The description is as above.

The target of experiment [9] is p300 in GBM cells (human (endogenous in GBM cells)) (UniProt Q09472). Description: co-IP; co-IP of Fstl1 and partners from GBM cells (Supplementary Figs. 9 and 10), Co-IP kit (Thermo Scientific); details in the Supplementary Material.

Take “ActR-IIB in GBM cells (from UniProt Q13705 19-512) (receptor)”: the binding result in [1] and in [2] was “binds” in each case.
Turning to “DIP2A (disco-interacting protein 2 homolog A), endogenous in GBM cells (from UniProt Q14689 1-1571)”, the binding result in experiment [3], in experiment [1] and in [2] was “binds” each time.
For “DMAP1 (DNA methyltransferase 1-associated protein 1), endogenous in GBM cells (from UniProt Q9NPF5 1-467)”, the binding entry in experiment [4], in experiment [5] and in experiment [6] was “binds” in each case.
As for “HDAC2 (histone deacetylase 2), endogenous in GBM cells (from UniProt Q92769 1-488) (enzyme)”, the binding result in experiment [7] and in experiment [8] was “no binding” each time.
Turning to “follistatin in GBM cells (from UniProt P19883 30-344)”, the binding result in [1] and in [2] was “binds” each time.
As for “p300 in GBM cells (from UniProt Q09472 1-2414)”, the binding entry in experiment [1] is given as “no binding”.

B1: CD14 in GBM cells (protein, UniProt P08571 20-345)
chain: TTPEPCELDDEDFRCVCNFSEPQPDWSEAFQCVSAVEVEIHAGGLNLEPFLKRVDADADPRQYADTVKALRVRRLTVGAAQVPAQLLVGALRVLAYSRLKELTLEDLKITGTMPPLPLEATGLALSSLRLRNVSWATGRSWLAELQQWLKPGLKVLSIAQAHSPAFSCEQVRAFPALTSLDLSDNPGLGERGLMAALCPHKFPAIQNLALRNTGMETPTGVCAALAAAGVQPHSLDLSHNSLRATVNPSAPRCMWSSALNSLNLSFAGLEQVPKGLPAKLRVLDLSCNRLNRAPQPDELPEVDNLTLDGNPFLVPGTALPHEGSMN
In the case of B1, the binding result in [1] and in experiment [2] was “binds” in each case.

B2: Fstl1 (follistatin-like protein 1) in GBM cells (protein, UniProt Q12841 21-308)
chain: EEELRSKSKICANVFCGAGRECAVTEKGEPTCLCIEQCKPHKRPVCGSNGKTYLNHCELHRDACLTGSKIQVDYDGHCKEKKSVSPSASPVVCYQSNRDELRRRIIQWLEAEIIPDGWFSKGSNYSEILDKYFKNFDNGDSRLDSSEFLKFVEQNETAINITTYPDQENNKLLRGLCVDALIELSDENADWKLSFQEFLKCLNPSFNPPEKKCALEDETYADGAETEVDCNRCVCACGNWVCTAMTCDGKNQKGAQTQTEEEMTRYVQELQKHQETAEKTKRVSTKEI
With B2, the binding result in experiment [9] is listed as “no binding”.
